In PubChem BioAssay AID624170 (National Center for Advancing Translational Sciences (NCATS), 2012):
In all, about 410,000 compounds went through this assay and about 850 (0.21%) were called active. The inconclusive results got no clear call from the source; some entries with a clear call stand among them for comparison. Calls follow the shape of the dose curve; as a rule, active = well fitted inhibition curve with a large enough effect; inconclusive = small, poorly fitted or top-dose-only effect, or another doubt; inactive = no such curve, though single readings can be large or run the other way. Potencies of inconclusive entries are left out as doubtful fits.

Biological target: Glutaminase kidney isoform, mitochondrial (Homo sapiens) (UniProt O94925)
Sequence of UniProt O94925 (O94925 whole entry, looked up, canonical isoform): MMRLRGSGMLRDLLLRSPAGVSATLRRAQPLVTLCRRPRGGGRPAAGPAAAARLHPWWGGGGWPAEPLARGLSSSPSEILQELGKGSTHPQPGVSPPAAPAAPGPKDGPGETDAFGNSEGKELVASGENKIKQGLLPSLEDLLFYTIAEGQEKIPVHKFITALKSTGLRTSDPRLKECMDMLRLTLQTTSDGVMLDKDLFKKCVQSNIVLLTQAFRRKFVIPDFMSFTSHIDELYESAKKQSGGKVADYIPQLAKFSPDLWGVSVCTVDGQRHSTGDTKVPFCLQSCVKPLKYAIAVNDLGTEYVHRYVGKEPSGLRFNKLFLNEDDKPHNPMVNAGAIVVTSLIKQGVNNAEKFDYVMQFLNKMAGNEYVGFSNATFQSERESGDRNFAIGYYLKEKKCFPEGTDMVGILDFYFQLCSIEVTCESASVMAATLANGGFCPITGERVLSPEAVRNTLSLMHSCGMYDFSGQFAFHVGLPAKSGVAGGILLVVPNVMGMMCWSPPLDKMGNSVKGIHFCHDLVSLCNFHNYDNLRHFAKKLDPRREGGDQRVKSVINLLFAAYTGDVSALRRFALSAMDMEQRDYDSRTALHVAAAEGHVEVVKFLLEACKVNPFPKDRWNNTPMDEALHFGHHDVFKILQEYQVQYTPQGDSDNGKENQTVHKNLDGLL
Experiment: qHTS for Inhibitors of Glutaminase (GLS)
Conditions: GLS enzymatic activity, qHTS titration; series mostly up to 45.5 µM
In short: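 hKGA in 45 mM KH2PO4 (pH 8.2), 0.02% Tween-20 with compound, then 1mM L-Glutamine (stock as added) plus glutamate oxidase/HRP/Amplex red coupling mix. Fluorescence read initially and after 30 min at RT; signal change reflects glutamate formation.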
Potency is read from the fitted curve at half-maximal effect; tags tell the direction and shape of the fitted curve.

Compound | Potency
CCCc1ccccc1OCCNC(C)=O | inconclusive [inhibitor, single point]
COc1cccc2c(C)c(C(=O)O)[nH]c12 | inconclusive [inhibitor, single point]
O=C(Cc1ccc2c(c1)OCCO2)c1c(O)cc(O)cc1O | inconclusive [inhibitor, single point]
Cc1nnn(-c2nonc2N)c1C(=O)N/N=C/c1ccccc1O | inactive
O=C(CSc1nnc(C2CC2)n1C1CC1)N1CCN(c2ccc(O)cc2)CC1 | inconclusive [inhibitor, single point]
O=C(CN1C(=O)C2C3C=CC(C3)C2C1=O)NCCc1ccccc1 (stereo not drawn) | inconclusive [inhibitor, single point]
O=C(NCc1cccc(Cl)c1)c1ccc2c(c1)OCCO2 | inconclusive [inhibitor, single point]
Cc1c(Cl)cnc(NC(=O)COC(=O)/C=C/c2ccco2)c1Cl | inconclusive [inhibitor, single point]
CC1CN(C(=O)CCC(=O)NCCCN2CCC(Cc3ccccc3)CC2)c2cc(Cl)ccc2O1 (stereo not drawn) | inconclusive [inhibitor, single point]
CN(C)S(=O)(=O)c1cccc(NC(=S)N/N=C/c2cc(Br)ccc2O)c1 | inconclusive [inhibitor, single point]
COc1ccc(-c2nc3c(C#N)c[nH]n3c2NC2CCCC2)cc1 | active: 12.6 µM
C=C(C)C(=O)Nc1cccc(C2=NOC3(C2)C[C@@H](C(N)=O)N(C(=O)/C(C)=C/C)C3)c1 (stereo partly drawn) | inconclusive [inhibitor, single point]
COc1ccc2nc(N3CCCC3)c(C#N)cc2c1 | inactive
CC#CCCC(=O)N1C=Cc2ccccc2C1C#N (stereo not drawn) | inconclusive [inhibitor, single point]
Nc1ccc2nc(SCC(=O)c3ccccc3)sc2c1 | inconclusive [inhibitor, partial curve, poor fit]
Clc1cccc(Cl)c1CNc1ccc(N2CCCC2)cc1 | active: 7.08 µM
O=C(O)c1ccccc1NS(=O)(=O)c1cccc(-n2sc3ccccc3c2=O)c1 | active: 7.08 µM
Cc1[nH]n(-c2ccccc2)c(=O)c1C1(C(F)(F)F)C(=O)N(c2ccccc2)C2=C1C(=O)CC(C)(C)C2 (stereo not drawn) | inconclusive [inhibitor, full curve]
O=c1oc2ccc(Cl)cc2nc1/C=C(\O)c1ccco1 | inconclusive [inhibitor, single point]
COc1ccc(Br)cc1CNC(=O)c1cnc2sc(N3CCCCCC3)nn2c1=O | inactive
O=S(=O)(Nc1ccc(F)cc1)c1cccc2nsnc12 | inactive
COc1cc2[nH]c(=O)c(C(=O)NCc3ccc(C)cc3)c(O)c2cc1OC | inactive
CCOC(=O)c1cn2nc(-c3ccc(OCC)cc3)cc2nc1C1CCN(C(=O)OC(C)(C)C)CC1 | inactive
Cc1ccc(NC(=O)CS(=O)(=O)c2cn(CC(=O)N3CCOCC3)c3ccccc23)cc1 | inactive
CCN(CC)CCSc1nnc2c3cc(C)ccc3n(Cc3ccccc3)c2n1 | inconclusive [inhibitor, single point]

Compound | Potency
Cc1ccc(-n2[nH]c(C)c(CCC#N)c2=O)cc1 | inconclusive [inhibitor, single point]
Cc1cc(NS(=O)(=O)c2ccc(NC(=O)COc3ccc(Br)cc3)cc2)nc(C)n1 | inconclusive [inhibitor, single point]
COc1ccccc1-c1nc2ccccc2c(=O)n1O | inactive
COc1cc(OC)cc(C(=O)NCC(=O)N2CCN(c3ccc(O)cc3)CC2)c1 | inconclusive [inhibitor, full curve]
O=S(=O)(Nc1cccc(-c2ccc(N3CCOCC3)nn2)c1)c1cc(Cl)ccc1Cl | inactive
CCOc1cc(N2CCOCC2)c(OCC)cc1NS(=O)(=O)c1ccc(Cl)s1 | inactive
O=C(/C=C/[C@H]1O[C@@H](n2ccc(=O)[nH]c2=O)[C@H](O)[C@@H]1O)NCC1CCCO1 (stereo partly drawn) | inconclusive [inhibitor, single point]
O=C1c2ccc([N+](=O)[O-])cc2NC(c2ccco2)N1/N=C/c1ccco1 (stereo not drawn) | inactive
COc1cccc2sc(NNC(=O)C3COc4ccccc4O3)nc12 (stereo not drawn) | inconclusive [inhibitor, partial curve]
O=C1CC(=O)N(Cc2ccco2)C(=O)N1 | active: 10 µM
CCn1c2ccccc2c2nnc(N3CCN(c4ccc(OC)cc4)CC3)nc21 | inactive
CCOC(=O)c1c(NC(=O)CC2Nc3cc(C)c(C)cc3NC2=O)sc(C)c1C (stereo not drawn) | inconclusive [inhibitor, single point]
CC1=C(C(=O)Nc2ccccc2)C2(CCCCC2)C(C#N)=C(SCC(N)=O)N1 | inconclusive [inhibitor, single point]
Cc1ccc(-n2ccnc2SCC(=O)N(CC(C)C)C2CCS(=O)(=O)C2)c(C)c1 (stereo not drawn) | inconclusive [inhibitor, partial curve, poor fit]
COc1ccc(-c2cc(C(=O)Nc3sc4c(c3C#N)CCCC4)c3ccccc3n2)cc1OC | inactive
O=C(Nc1nc(-c2ccccc2)ns1)c1ccncc1 | inconclusive [inhibitor, single point]
O=C(NCc1cccnc1)c1ccc(-c2cccc(Cl)c2Cl)o1 | inactive
N#CC1=C(N)n2c(s/c(=C\c3ccco3)c2=O)=C(C#N)C1c1ccco1 (stereo not drawn) | active: 11.2 µM
CCCN=Cc1sc2ccc(OCC)cc2c1O | inactive
O=C(NCCSc1ccc(Br)cc1)c1ccc2nc[nH]c2c1 | inactive
Cc1ccc(-c2nnc(Nc3ccc(F)cc3)c3ccccc23)cc1S(=O)(=O)NC(C)C | inactive
CC1=C(C(=O)OCCOc2ccccc2)C(c2ccc(C)o2)C2=C(CC(C)(C)CC2=O)N1 (stereo not drawn) | inactive
COc1cc(/C(C)=N/NC(=O)CSc2nc3ccccc3[nH]2)ccc1O | inconclusive [inhibitor, single point]
Cc1ccccc1OCCN1C(=O)NC2(CCc3ccccc32)C1=O (stereo not drawn) | inconclusive [inhibitor, single point]
CCc1cc(C(=O)Nc2ccc(OC)nc2)sc1C | inactive

Compound | Potency
O=C1COc2ccc(C(=O)COC(=O)/C=C/c3ccc(Br)o3)cc2N1 | inconclusive [inhibitor, partial curve]
O=C(Nc1cc(Cl)ccc1Cl)N1CCCC1 | inconclusive [inhibitor, single point]
COc1ccc(N2Cc3ccccc3C2)cc1Cl | inactive
C[C@@H]1O[C@@H](OC[C@H]2O[C@@H](Oc3cc(O)c4c(=O)cc(-c5ccc(O)c(O)c5)oc4c3)[C@H](O)[C@@H](O)[C@@H]2O)[C@H](O)[C@H](O)[C@H]1O | inconclusive [inhibitor, single point]
COc1ccc(NC(=O)c2[nH]c(C)c(C(C)=O)c2C)cc1Cl | inactive
Cc1nc(-c2ccc(NC(=O)C(C)(C)C)cc2)c(-c2ccccc2)o1 | inconclusive [inhibitor, single point]
O=C(NC1CCCCC1)Oc1cc2oc(=O)sc2cc1Br | inconclusive [inhibitor, partial curve, poor fit]
Cc1nn(-c2cccc(Cl)c2)c2nc(-c3cccnc3)cc(C(F)(F)F)c12 | inactive
Oc1c(Br)cc(/C=N/Nc2nncc3ccccc23)cc1Br | inconclusive [inhibitor, single point]
O=C(O)c1ccc(N2C(=O)/C(=C/c3ccc(-c4ccc([N+](=O)[O-])cc4)o3)C=C2c2ccccc2)cc1 | inconclusive [inhibitor, single point]
Cc1cccc(N2CCN(c3ccc4cc(S(=O)(=O)N5CCC(C)CC5)ccc4n3)CC2C)c1 (stereo not drawn) | inactive
COc1ccc(-c2cc(C(F)F)n3ncc(C(=O)N4CCc5ccccc54)c3n2)cc1 | inconclusive [inhibitor, single point]
C=CCn1c(-c2cccn(Cc3ccc(Cl)cc3)c2=O)n[nH]c1=S | inconclusive [inhibitor, single point]
CCc1ccc(NCc2cc3cc(OC)c(OC)cc3n(CC(=O)Nc3ccc(F)cc3)c2=O)cc1 | inconclusive [inhibitor, single point]
CC(=O)N1CCN(c2ccc(NC(=S)NC(=O)c3ccc(C)c([N+](=O)[O-])c3)cc2)CC1 | inconclusive [inhibitor, single point]
COc1ccc(-n2c(-c3ccc(Cl)cc3)c[nH]c2=S)cc1 | inconclusive [inhibitor, full curve]
Cc1cc([N+](=O)[O-])nn1Cc1ccccc1F | inconclusive [inhibitor, partial curve, poor fit]
O=c1c2ccccc2cnn1-c1ccc2ccccc2c1 | inactive
Clc1cccc(Oc2cnns2)c1Cl | inconclusive [inhibitor, single point]
O=C(N/N=C/c1cccnc1)c1cccc(Cl)c1 | inactive
O=C1N/C(=N\N=C\c2cccs2)SC1Cc1ccc(Cl)cc1Cl (stereo not drawn) | inconclusive [inhibitor, single point]
Clc1ccc(N2CCN(/N=C/c3ccncc3)CC2)cc1 | inactive
COc1cc(C2C(C(=O)c3ccco3)=C(O)C(=O)N2c2cc(C)on2)cc(Br)c1O (stereo not drawn) | inactive
